Laboratory results published in the antibiotic and cytotoxicity screens of Wong et al. (2023).
This is one part of the list.

What was measured:
HSkMC = human skeletal muscle cells; test: cytotoxicity call (relative viability < 0.9); conditions: 10 µM
HepG2 = test: cytotoxicity call (relative viability < 0.9); conditions: 10 µM
S. aureus RN4220 = test: growth inhibition call (relative growth <= 0.2); conditions: 50 µM

Compound	cytotoxicity call (HSkMC)	cytotoxicity call (HepG2)	growth inhibition call (S. aureus RN4220)
Cc1ccc(S(=O)(=O)Nc2cccc3c2O[C@H](CN(C)S(=O)(=O)c2cccs2)[C@@H](C)CN([C@H](C)CO)C3=O)cc1	inactive	inactive	inactive
C[C@H]1CN([C@@H](C)CO)C(=O)Cc2cc(NC(=O)C3CC3)ccc2O[C@@H]1CN(C)S(=O)(=O)c1ccc(Cl)cc1	inactive	inactive	inactive
C[C@@H]1CCCCO[C@@H](CN(C)CC2CCCCC2)[C@H](C)CN([C@H](C)CO)C(=O)c2cc(NS(=O)(=O)c3ccc(F)cc3)ccc2O1	inactive	inactive	inactive
CO[C@H]1CN(C)C(=O)c2ccc(NS(=O)(=O)c3cn(C)cn3)cc2OC[C@@H](C)N(CCC(F)(F)F)C[C@@H]1C	inactive	inactive	inactive
CO[C@@H]1CN(C)C(=O)c2cc(NC(=O)Nc3ccccc3)ccc2OC[C@@H](C)N(C(=O)CN(C)C)C[C@@H]1C	inactive	inactive	inactive
COc1ccc(S(=O)(=O)Nc2ccc3c(c2)CC(=O)N([C@H](C)CO)C[C@@H](C)[C@@H](CN(C)Cc2ccncc2)O3)cc1	inactive	inactive	inactive
COc1ccc(cc1)S(=O)(=O)N1C[C@]2(C1)CN([C@@H](CO)c1c2c2ccc(cc2n1C)OC)C(=O)CN(C)C	inactive	inactive	inactive
COc1ccc(S(=O)(=O)N(C)C[C@@H]2Oc3ncc(C#CC(C)(C)O)cc3C(=O)N([C@H](C)CO)C[C@@H]2C)cc1	inactive	inactive	inactive
O=C1N(CCS(=O)(=O)c2ccccc2)Cc2ccccc2C[C@@]12COC(c1ccc(OCCCO)cc1)=N2	active	inactive	inactive
COc1ccc(NC(=O)Nc2ccc3c(c2)C(=O)N([C@@H](C)CO)C[C@@H](C)[C@@H](CN(C)S(=O)(=O)c2ccc(C)cc2)OCCCC[C@@H](C)O3)cc1	inactive	inactive	inactive
Cc1ccc(S(=O)(=O)Nc2ccc3c(c2)CC(=O)N([C@H](C)CO)C[C@@H](C)[C@@H](CN(C)S(C)(=O)=O)O3)cc1	inactive	inactive	inactive
Cc1noc(C)c1NC(=O)N(C)C[C@@H]1Oc2ccc(NS(=O)(=O)c3cn(C)cn3)cc2C(=O)N([C@H](C)CO)C[C@@H]1C	inactive	inactive	inactive
CC1=C(/C=C/C(C)=C/C=C/C(C)=C/C=C/C=C(C)/C=C/C=C(C)/C=C/[C@@]23O[C@]2(C)C[C@@H](O)CC3(C)C)C(C)(C)C[C@H](O)C1	inactive	inactive	inactive
N[C@@H](CC(=O)O)C(=O)O	inactive	inactive	inactive
C[C@H](CO)N1C[C@H](C)[C@@H](CN(C)Cc2ccc(C(=O)O)cc2)Oc2c(NC(=O)Nc3ccc(C(F)(F)F)cc3)cccc2C1=O	inactive	inactive	inactive
CSc1nc(=O)cc(O)[nH]1	inactive	inactive	inactive
C[C@@H]1CCCCO[C@H](CN(C)Cc2ccc3c(c2)OCO3)[C@H](C)CN([C@@H](C)CO)C(=O)c2cc(NC(=O)Cc3ccccc3)ccc2O1	inactive	inactive	inactive
C[C@@H]1CN([C@H](C)CO)C(=O)c2cc(NS(=O)(=O)c3ccccc3)ccc2O[C@@H](C)CCCCO[C@H]1CN(C)S(=O)(=O)c1ccc(Cl)cc1	active	active	inactive
COc1ccc(S(=O)(=O)Nc2ccc3c(c2)CC(=O)N([C@@H](C)CO)C[C@@H](C)[C@@H](CN(C)S(=O)(=O)c2ccc(F)cc2)O3)cc1	inactive	inactive	inactive
C[C@@H]1CN([C@H](C)CO)C(=O)c2cc(NC(=O)C3CCCCC3)ccc2O[C@@H](C)CCCCO[C@@H]1CN(C)Cc1ccc(Cl)c(Cl)c1	inactive	inactive	inactive
COc1ccc(NC(=O)N(C)C[C@H]2OCCCC[C@H](C)Oc3ccc(NC(=O)Cc4ccccc4)cc3C(=O)N([C@@H](C)CO)C[C@@H]2C)cc1	inactive	inactive	inactive
C[C@@H]1CN([C@H](C)CO)C(=O)c2cc(NC(=O)NC3CCCCC3)ccc2O[C@@H](C)CCCCO[C@H]1CN(C)Cc1ccncc1	inactive	inactive	inactive
CS(=O)(=O)N1CCS(=O)(=O)[C@H]2CCN(CC3CC3)CC[C@@H]21	inactive	inactive	inactive
COc1ccc(S(=O)(=O)N(C)C[C@@H]2Oc3ccc(NC(=O)CCCN(C)C)cc3C(=O)N([C@@H](C)CO)C[C@@H]2C)cc1	inactive	inactive	inactive
